About 6,900 (2%) of roughly 340,000 compounds were called active. No stated cut-off is given here; in the data, active means inhibition above about 30%; inactive means below that, where a call was filed. This is a selection; strong and weak results do not stand in their true shares. Entries without a call were filed so in the source.

Chain of UniProt P14416 (P14416 whole entry, looked up): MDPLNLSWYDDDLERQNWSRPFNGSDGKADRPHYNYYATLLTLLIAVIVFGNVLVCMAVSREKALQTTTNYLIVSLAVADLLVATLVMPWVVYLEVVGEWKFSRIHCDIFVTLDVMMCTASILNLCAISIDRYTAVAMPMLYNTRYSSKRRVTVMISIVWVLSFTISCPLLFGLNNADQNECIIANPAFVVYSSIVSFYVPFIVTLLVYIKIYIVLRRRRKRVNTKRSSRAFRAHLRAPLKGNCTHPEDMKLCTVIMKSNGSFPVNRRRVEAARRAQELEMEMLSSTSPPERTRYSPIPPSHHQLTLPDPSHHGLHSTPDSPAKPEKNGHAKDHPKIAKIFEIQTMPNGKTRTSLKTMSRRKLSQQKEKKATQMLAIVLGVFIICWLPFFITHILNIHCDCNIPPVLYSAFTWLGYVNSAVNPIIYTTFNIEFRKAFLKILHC

The target of this test is D(2) dopamine receptor (Homo sapiens) (UniProt P14416). Put plainly: HTS Assay for Allosteric Antagonists of the Human D2 Dopamine Receptor: Primary Screen for Antagonists. Further: 0% is about no effect. The note with it: HEK293 TREx D2 cells, calcium flux, dopamine EC80; at 10 µM; stronger effect = higher value. The text has this:
NIH Chemical Genomics Center [NCGC] NIH Molecular Libraries Probe Centers Network [MLPCN] MLPCN Grant: NS064831-01 Assay Submitter (PI): David Sibley Dopamine receptors (DARs) are involved in the etiology and/or therapy of a number of neuropsychiatric and endocrine disorders. For instance, all receptor-based antiparkinsonian drugs work via stimulating the D2 DAR subtype whereas all FDA-approved antipsychotic agents are antagonists of this receptor. […] There are three different types of allosteric modulators that we are seeking, two of which will stimulate or augment receptor signaling, allosteric agonists and potentiators, while the third, allosteric antagonists, will attenuate receptor signaling. The present primary screening assay measures compound antagonism after an EC80 addition of dopamine by tracking calcium flux in a […], inducible Hek293 Trex D2 cell line.
Freshly passaged cells are plated in 1536 well black, clear bottom plates at a density of 4000 cells/well in 3 ul of complete media containing 1x tetracycline inducer. After an overnight incubation at 30 C in 5% CO2, cells are loaded with 2 ul of the no wash Calcium Assay Kit (ABD Bioquest) and incubated at room temperature for 30 to 90 minutes. Agonist read: A 10 cycle (1 second/cycle) baseline measurement is taken and then the FDSS online 1536 pintool delivers 23 nl of compound library (as well as dopamine controls) to the plate. The plate is measured for kinetically at 1 cycle/sec for 180 seconds. Following the 180 second read, 1 ul of an EC80 (negative modulation assay) is delivered by an onboard pipette head. Measurements are taken kinetically for an additional 180 seconds.
For orientation: Calcium flux is commonly read through the fluorescence of an indicator in the cells.
As usually defined, the inhibition is the relative decrease from the control value, in per cent. Consider `CC1CCN(S(=O)(=O)c2ccc3c(ccc(=O)n3CC(=O)NCc3ccc(Cl)cc3)c2)CC1`, for which the inhibition was -0.474%.

In the case of `CCOc1ccc(Nc2nc3c(S(=O)(=O)c4ccc(CC)cc4)nnn3c3ccc(Cl)cc23)cc1`, the inhibition is -1.29%.

Take `CC(=O)c1cccc(NC(=O)CCc2nc3cccnc3n2Cc2cccs2)c1`: the inhibition turned out to be 4.64%.

`CCN1CCc2c(sc(-n3cccc3)c2C(C)NC(=O)Nc2cc(Cl)c(OC)cc2OC)C1` (stereo not drawn): the inhibition came to 19.1%.

For the compound `Cc1ccc(NC(=O)c2cc(S(=O)(=O)N3CCCCCC3)ccc2F)cc1F`, the inhibition was -9.92%.

In the case of `CC(C)Oc1ccc(NC(=O)c2cc3ccccc3o2)cc1`, the inhibition was 27.8%.

In the case of `COc1ccc(CCNc2oc(COc3cccc(C)c3)nc2C#N)cc1OC`, the inhibition was 8.31%.

Turning to `CCCNC(=O)c1cnn2c(C(F)F)cc(-c3ccccc3)nc12`, the inhibition was -0.807%.

In the case of `Cc1sc2c(c1C)c(=O)n(Cc1ccccc1)c(=O)n2CC(=O)N(C)c1ccccc1`, the inhibition came out at 0.891%.

For `CC1(C)CC(=O)c2cc(-c3nc(-c4ccc(Cl)cc4)cs3)c(=O)[nH]c2C1`, the inhibition was determined as 11.7%.

`CN1CCN(C(=O)c2ccc3c(c2)N(Cc2ccc(F)cc2)C(=O)c2ccccc2S3=O)CC1` (stereo not drawn): the inhibition stood at 1.78%.

In the case of `CCC(=O)N1c2ccccc2C(C)(c2ccccc2)CC1(C)C` (stereo not drawn), the inhibition was -23.9%.

In the case of `CC(C)(C)OC(=O)N1CCC(c2c(C(=O)NCc3ccccc3)cnn2-c2ccc(F)cc2)CC1`, the inhibition is -2.39%.

For the compound `O=C(CSc1nc(-c2ccccc2)no1)N1CCN(c2ccccc2)CC1`, the inhibition stood at 1.1%.

As to `CCOc1ccccc1NC(=O)c1cc(S(=O)(=O)N2CCOCC2)cn1C`, the inhibition amounted to 10.1%.

On to `CCOC(=O)c1c(C)oc2c1cc(NS(=O)(=O)c1ccc(C)cc1)c1ccccc12`, for which the inhibition stood at 6.49%.

For `CSCCC(NC(=O)c1ccco1)C(=O)N1CCN(C(c2ccccc2)c2ccccc2)CC1` (stereo not drawn), the inhibition is active: 34.4%.

With `O=C(NC1CC(=O)N(c2ccc(Cl)cc2)C1)C1CCCC1` (stereo not drawn), the inhibition was determined as 15.7%.

Regarding `COc1ccc(NC(=O)CSc2nc3c(oc4ccccc43)c(=O)n2-c2ccccc2)cc1OC`, the inhibition was found to be 9.3%.

Take `CCC(C)NC(=O)c1ccc2c(c1)nc1n2CCCCC1` (stereo not drawn): the inhibition amounted to 1.68%.

With `O=C(COc1cccc(Cl)c1)N1CCC(c2nc3ccccc3o2)CC1`, the inhibition was found to be 15.1%.

Consider `CCOc1ccc(NC(=O)CSc2nc3c([nH]c4ccccc43)c(=O)n2-c2cc(C)cc(C)c2)cc1`, for which the inhibition was 6.2%.

With `O=C(NCc1ccccc1Cl)C1CCCN(C(=O)c2cnn(-c3ccc(F)cc3)c2-n2cccc2)C1` (stereo not drawn), the inhibition was 0.433%.

Regarding `Cc1cccc(N2CCN(C(=O)c3cnc4c(C)cccn4c3=O)CC2C)c1` (stereo not drawn), the inhibition came out at 15.9%.

Regarding `Cc1nc2c(-c3ccccc3)c(C)nn2c(C)c1CCC(=O)NCCc1ccccc1`, the inhibition came out at 2.33%.

Turning to `CC(C)c1ccc(NC(=O)N2CCN(c3ccc(Cl)c(Cl)c3)CC2)cc1`, the inhibition worked out at 8.7%.

For `CCOc1ccc(NC(=O)CSc2nc3ccsc3c(=O)n2CCCCCC(=O)O)cc1`, the inhibition was -3.15%.

`CC(=O)N1CCCc2cc(S(=O)(=O)N3CCCC(C(=O)NCc4ccc(C)cc4)C3)ccc21` (stereo not drawn): the inhibition was -7.54%.

On to `CCOc1ccc(NCc2nc3ccccc3n2CCOc2ccc(C)cc2)cc1`, for which the inhibition is -15.4%.

Consider `COc1cccc(Cn2c(CNS(=O)(=O)c3ccc(Cl)s3)nc3cccnc32)c1`, for which the inhibition is 20.5%.

In the case of `CCc1ccc(-n2nc3ccc(NC(=O)COc4ccc(OC)cc4)cc3n2)cc1`, the inhibition worked out at 23%.

Consider `CCc1nn2c(=O)c(S(=O)(=O)Nc3ccc(C(C)C)cc3)c(C)nc2s1`, for which the inhibition is -5.37%.

Take `COc1ccc(S(=O)(=O)N(C)C)cc1NC(=O)COC(=O)Cn1cnc2ccccc2c1=O`: the inhibition is active: 37.9%.

Turning to `O=C(CSc1nc2c(c(=O)[nH]1)CN(Cc1ccc3c(c1)OCO3)CC2)Nc1ccccc1Cl`, the inhibition is -5.97%.

As to `COc1ccccc1CNC(=O)CSc1nnc(C)c2c(C)n(-c3ccccc3)nc12`, the inhibition was -2.02%.

For `Cc1cccc(NC(=O)c2nc[nH]c2C(=O)N2CCc3ccccc3C2)c1`, the inhibition was active: 85.9%.

With `CC1(C)C2CC[C@]1(C)C(=O)N(CCCCN1CCN(c3ccccn3)CC1)C2=O`, the inhibition was active: 116%.

Regarding `Cc1ccc(CCNC(=O)c2ccc3c(c2)nc2n3CCOC2)cc1`, the inhibition is -8.75%.

As for `CCOCCCn1c(SCC(=O)Nc2ccccc2Cl)nc2c(oc3ccccc32)c1=O`, the inhibition was determined as 13.2%.

As to `Cc1ccccc1OCCCCn1nnc2sc3c(c2c1=O)CCC(C)C3` (stereo not drawn), the inhibition is 5.17%.

As for `Cc1nc2sccn2c(=O)c1S(=O)(=O)Nc1cc(C(F)(F)F)ccc1Cl`, the inhibition was found to be 3.04%.

Take `COCCNC(=O)c1ccc(-c2nc(CS(=O)(=O)c3ccccc3)c(C)o2)cc1`: the inhibition was 10.8%.

Consider `CN1C(=O)C2(SCC(=O)N2c2ccc(Cl)cc2)c2ccccc21` (stereo not drawn), for which the inhibition is -9.73%.

As to `CS(=O)(=O)N1CCc2cc(C(=O)Nc3ccc(C(F)(F)F)cc3)ccc21`, the inhibition was -15.4%.

Regarding `Cc1cc(C)n(-c2nc3cc(Cl)ccc3nc2N2CCN(c3ccccc3F)CC2)n1`, the inhibition was -20.9%.

`Cc1ccc(CNC(=O)CSc2nc3n[nH]c(C)c3c(=N)n2-c2ccccc2Cl)cc1`: the inhibition worked out at 8.59%.

Turning to `Cc1ccc(S(=O)(=O)C(CNC(=O)COc2ccccc2)c2ccco2)cc1` (stereo not drawn), the inhibition amounted to 4.78%.

Turning to `CCCOc1ccc(-c2cc(C(F)(F)F)c(C#N)c(SCCC(=O)O)n2)cc1`, the inhibition was 3.34%.

These data come from PubChem BioAssay AID485344 (National Center for Advancing Translational Sciences (NCATS), 2010).
